No constants are given. Whether binding was seen depends on the method and setting. Binding seen in cells or lysates may run through a third protein. Some results given as binding are weak or reduced against the parent protein; the word gives no strength. For some of these results: Sequences can lack the tags named with a protein. Each block holds one molecule with its values, some of them ahead of it.
Assays:
[1] = molecular target: T1, Flag-DKC1 (human (cDNA of PDAC cells)) (UniProt O60832); test: co-IP; HEK293T cells co-transfected with Flag- and Myc-tagged constructs; IP lysis buffer (25 mM Tris-HCl pH 7.4, 150 mM NaCl, 1% NP-40, 1 mM EDTA, 5% glycerol); anti-Flag gels overnight at 4 °C; immunoblot for Myc
T1 sequence: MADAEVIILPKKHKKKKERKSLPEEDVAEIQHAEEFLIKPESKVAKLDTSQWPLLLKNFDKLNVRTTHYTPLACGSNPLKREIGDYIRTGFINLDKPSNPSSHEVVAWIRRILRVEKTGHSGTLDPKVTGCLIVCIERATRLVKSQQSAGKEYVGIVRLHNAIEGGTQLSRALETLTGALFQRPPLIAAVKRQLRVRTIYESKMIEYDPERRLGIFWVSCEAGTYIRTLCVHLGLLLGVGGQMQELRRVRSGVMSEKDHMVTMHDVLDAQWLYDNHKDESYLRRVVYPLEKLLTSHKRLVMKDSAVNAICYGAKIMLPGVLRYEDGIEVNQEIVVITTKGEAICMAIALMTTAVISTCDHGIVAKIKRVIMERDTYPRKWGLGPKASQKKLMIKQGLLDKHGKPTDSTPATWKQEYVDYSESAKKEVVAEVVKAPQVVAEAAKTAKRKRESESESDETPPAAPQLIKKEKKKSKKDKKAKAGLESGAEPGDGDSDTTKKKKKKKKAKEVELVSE

The chains behind the UniProt entries cited, without tags or fusion partners. Where a name states a change or a piece, a line headed by the entry shows the natural chain unless it says otherwise.
UniProt Q9H4L4: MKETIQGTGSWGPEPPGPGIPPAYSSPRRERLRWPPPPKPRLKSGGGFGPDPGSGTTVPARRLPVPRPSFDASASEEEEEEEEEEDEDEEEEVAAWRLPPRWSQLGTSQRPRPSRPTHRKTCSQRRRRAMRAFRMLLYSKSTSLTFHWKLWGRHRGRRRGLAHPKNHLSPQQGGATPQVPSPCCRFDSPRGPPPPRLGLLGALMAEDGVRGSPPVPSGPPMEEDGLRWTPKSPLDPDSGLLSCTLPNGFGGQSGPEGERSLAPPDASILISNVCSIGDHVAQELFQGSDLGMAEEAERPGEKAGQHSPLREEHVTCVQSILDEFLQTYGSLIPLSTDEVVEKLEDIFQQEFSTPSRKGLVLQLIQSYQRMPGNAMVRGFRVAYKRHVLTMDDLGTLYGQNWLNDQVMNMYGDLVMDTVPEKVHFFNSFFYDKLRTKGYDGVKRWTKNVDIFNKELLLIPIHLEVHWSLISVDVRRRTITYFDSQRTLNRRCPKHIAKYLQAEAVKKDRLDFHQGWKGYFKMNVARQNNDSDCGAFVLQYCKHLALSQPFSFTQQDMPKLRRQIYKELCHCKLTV
UniProt P63279: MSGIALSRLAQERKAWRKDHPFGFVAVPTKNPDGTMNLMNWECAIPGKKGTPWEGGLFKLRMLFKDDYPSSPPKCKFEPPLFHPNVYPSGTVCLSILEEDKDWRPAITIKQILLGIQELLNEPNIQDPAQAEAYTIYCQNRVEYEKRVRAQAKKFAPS

[2] = molecular target: T2, Flag-GFP-DKC1-M (human (cDNA of PDAC cells)) (UniProt O60832); test: as above
T2 sequence: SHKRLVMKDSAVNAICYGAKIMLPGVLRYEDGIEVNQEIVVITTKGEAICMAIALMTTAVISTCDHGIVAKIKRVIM

[3] = molecular target: T3, DKC1 (construct of Fig. 5A, B; tag not told) (human (cDNA of PDAC cells)) (UniProt O60832); test: co-IP; HEK293T cells transduced with expression vectors for DKC1 and UBC9; lysis and co-IP, immunoblot; tags and bait not told in the legend
T3 sequence: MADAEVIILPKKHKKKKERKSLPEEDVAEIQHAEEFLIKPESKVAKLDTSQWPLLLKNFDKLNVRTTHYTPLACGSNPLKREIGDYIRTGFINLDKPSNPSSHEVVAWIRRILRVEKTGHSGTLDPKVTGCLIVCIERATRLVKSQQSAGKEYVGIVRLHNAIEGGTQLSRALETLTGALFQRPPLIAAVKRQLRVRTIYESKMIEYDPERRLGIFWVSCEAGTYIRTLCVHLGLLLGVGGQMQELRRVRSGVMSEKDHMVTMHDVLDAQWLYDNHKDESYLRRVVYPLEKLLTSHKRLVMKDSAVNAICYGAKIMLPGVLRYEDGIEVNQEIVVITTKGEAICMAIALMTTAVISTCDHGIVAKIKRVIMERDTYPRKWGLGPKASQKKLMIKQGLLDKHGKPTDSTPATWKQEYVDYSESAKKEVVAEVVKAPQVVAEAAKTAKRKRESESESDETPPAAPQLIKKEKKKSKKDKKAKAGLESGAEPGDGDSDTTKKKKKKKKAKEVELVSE

[4] = molecular target: T1, Flag-DKC1 (human (cDNA of PDAC cells)); test: co-IP; HEK293T cells transfected for 24 h with SENP3 (wild type or C532S), Flag-DKC1 and HA-SUMO3; DKC1 recovered with anti-Flag gels; immunoblot
[5] = molecular target: T4, dyskerin pseudouridine synthase (DKC1), endogenous (human (endogenous in Patu-8988t)) (UniProt O60832); test: co-IP; endogenous, reciprocal; Patu-8988t cell lysate incubated with antibodies against SENP3 or DKC1 overnight at 4 °C, then protein A/G agarose beads 2 h; immunoblot
T4 sequence: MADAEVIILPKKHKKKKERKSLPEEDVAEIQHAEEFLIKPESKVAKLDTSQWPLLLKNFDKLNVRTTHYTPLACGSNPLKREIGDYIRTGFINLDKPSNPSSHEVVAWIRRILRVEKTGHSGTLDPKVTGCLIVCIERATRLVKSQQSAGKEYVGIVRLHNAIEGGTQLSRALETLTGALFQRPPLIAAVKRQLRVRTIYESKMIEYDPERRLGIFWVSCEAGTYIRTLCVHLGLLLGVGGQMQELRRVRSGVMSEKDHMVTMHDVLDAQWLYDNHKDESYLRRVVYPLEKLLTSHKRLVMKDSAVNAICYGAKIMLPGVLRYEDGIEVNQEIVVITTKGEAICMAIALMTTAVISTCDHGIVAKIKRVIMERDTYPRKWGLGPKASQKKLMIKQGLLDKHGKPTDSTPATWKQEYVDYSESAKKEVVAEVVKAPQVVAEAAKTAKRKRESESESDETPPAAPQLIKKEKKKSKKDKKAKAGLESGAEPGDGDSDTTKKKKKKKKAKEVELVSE

[6] = molecular target: T1, Flag-DKC1 (human (cDNA of PDAC cells)); test: co-IP; HEK293T cells co-transfected with Flag- and Myc-tagged constructs; IP lysis buffer (25 mM Tris-HCl pH 7.4, 150 mM NaCl, 1% NP-40, 1 mM EDTA, 5% glycerol); anti-Flag gels overnight at 4 °C; immunoblot for Myc; remark: listed apart in the source
[7] = molecular target: T5, SUMOylation-resistant (3KR) DKC1, Flag-tagged (human (cDNA of PDAC cells)) (UniProt O60832); test: as above
T5 sequence: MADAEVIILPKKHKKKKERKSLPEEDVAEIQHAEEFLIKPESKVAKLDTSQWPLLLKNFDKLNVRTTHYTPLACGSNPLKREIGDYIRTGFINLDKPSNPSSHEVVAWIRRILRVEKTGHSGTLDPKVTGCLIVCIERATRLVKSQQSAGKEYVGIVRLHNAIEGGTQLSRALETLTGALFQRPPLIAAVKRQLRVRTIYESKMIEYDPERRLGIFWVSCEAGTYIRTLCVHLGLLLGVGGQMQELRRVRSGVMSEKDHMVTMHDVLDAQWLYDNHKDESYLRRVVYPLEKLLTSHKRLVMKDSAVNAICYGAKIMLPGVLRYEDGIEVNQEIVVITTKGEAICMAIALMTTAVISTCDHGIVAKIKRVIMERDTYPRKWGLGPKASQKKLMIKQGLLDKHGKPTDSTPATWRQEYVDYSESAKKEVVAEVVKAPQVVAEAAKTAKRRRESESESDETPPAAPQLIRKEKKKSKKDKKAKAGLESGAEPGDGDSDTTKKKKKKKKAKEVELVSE

[8] = molecular target: Flag-SENP3 (human (cDNA of PDAC cells)) (UniProt Q9H4L4); test: as above
[9] = molecular target: T6, Flag-NHP2, wild type (human (cDNA of PDAC cells)) (UniProt Q9NX24); test: as above
T6 sequence: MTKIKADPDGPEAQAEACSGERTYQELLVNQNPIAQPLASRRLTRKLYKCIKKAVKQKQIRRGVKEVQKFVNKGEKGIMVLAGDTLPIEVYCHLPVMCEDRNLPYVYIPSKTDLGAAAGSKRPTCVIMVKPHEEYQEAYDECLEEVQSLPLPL

[10] = molecular target: SUMO specific peptidase 3 (SENP3), endogenous (human (endogenous in Patu-8988t)) (UniProt Q9H4L4); test: co-IP; endogenous, reciprocal; Patu-8988t cell lysate incubated with antibodies against SENP3 or DKC1 overnight at 4 °C, then protein A/G agarose beads 2 h; immunoblot

Molecule: UBC9 (from UniProt P63279 1-158) (enzyme)
binding [3]: binds

Molecule: catalytically inactive SENP3 (C532S) (from UniProt Q9H4L4 1-574) (enzyme)
binding [4]: binds

B3: dyskerin pseudouridine synthase (DKC1), endogenous (protein, UniProt O60832 1-514)
chain: MADAEVIILPKKHKKKKERKSLPEEDVAEIQHAEEFLIKPESKVAKLDTSQWPLLLKNFDKLNVRTTHYTPLACGSNPLKREIGDYIRTGFINLDKPSNPSSHEVVAWIRRILRVEKTGHSGTLDPKVTGCLIVCIERATRLVKSQQSAGKEYVGIVRLHNAIEGGTQLSRALETLTGALFQRPPLIAAVKRQLRVRTIYESKMIEYDPERRLGIFWVSCEAGTYIRTLCVHLGLLLGVGGQMQELRRVRSGVMSEKDHMVTMHDVLDAQWLYDNHKDESYLRRVVYPLEKLLTSHKRLVMKDSAVNAICYGAKIMLPGVLRYEDGIEVNQEIVVITTKGEAICMAIALMTTAVISTCDHGIVAKIKRVIMERDTYPRKWGLGPKASQKKLMIKQGLLDKHGKPTDSTPATWKQEYVDYSESAKKEVVAEVVKAPQVVAEAAKTAKRKRESESESDETPPAAPQLIKKEKKKSKKDKKAKAGLESGAEPGDGDSDTTKKKKKKKKAKEVELVSE
binding [10]: binds

Further lines, results first:

binding [1]: binds
binding [2]: no binding
Molecule: Myc-SENP3 (from UniProt Q9H4L4 1-574) (enzyme)

binding [5]: binds
Molecule: SUMO specific peptidase 3 (SENP3), endogenous (from UniProt Q9H4L4 1-574) (enzyme)

binding [6]: binds
binding [7]: binds
B1: MYC-tagged NHP2 (protein, UniProt Q9NX24 1-153)
chain: MTKIKADPDGPEAQAEACSGERTYQELLVNQNPIAQPLASRRLTRKLYKCIKKAVKQKQIRRGVKEVQKFVNKGEKGIMVLAGDTLPIEVYCHLPVMCEDRNLPYVYIPSKTDLGAAAGSKRPTCVIMVKPHEEYQEAYDECLEEVQSLPLPL

binding [8]: binds
binding [9]: binds
B2: Myc-DKC1 (protein, UniProt O60832 1-514)
chain: MADAEVIILPKKHKKKKERKSLPEEDVAEIQHAEEFLIKPESKVAKLDTSQWPLLLKNFDKLNVRTTHYTPLACGSNPLKREIGDYIRTGFINLDKPSNPSSHEVVAWIRRILRVEKTGHSGTLDPKVTGCLIVCIERATRLVKSQQSAGKEYVGIVRLHNAIEGGTQLSRALETLTGALFQRPPLIAAVKRQLRVRTIYESKMIEYDPERRLGIFWVSCEAGTYIRTLCVHLGLLLGVGGQMQELRRVRSGVMSEKDHMVTMHDVLDAQWLYDNHKDESYLRRVVYPLEKLLTSHKRLVMKDSAVNAICYGAKIMLPGVLRYEDGIEVNQEIVVITTKGEAICMAIALMTTAVISTCDHGIVAKIKRVIMERDTYPRKWGLGPKASQKKLMIKQGLLDKHGKPTDSTPATWKQEYVDYSESAKKEVVAEVVKAPQVVAEAAKTAKRKRESESESDETPPAAPQLIKKEKKKSKKDKKAKAGLESGAEPGDGDSDTTKKKKKKKKAKEVELVSE

— publication PMC10307871
